The whole screen tested about 350,000 compounds, of which about 9,900 (2.8%) were called active. Inconclusive means that the source gave no clear call. Such entries were picked first, then a sample of the others. The call rests on the fitted dose curve; in most records, active means well fitted activation curve with a large enough effect; inconclusive means small, poorly fitted or top-dose-only effect; inactive means no such curve, though single readings can be large or run the other way. Potencies of inconclusive entries are left out as doubtful fits.
Experiment: A quantitative high throughput screen for small molecules that induce DNA re-replication in MCF 10a normal breast cells. Further: nearly all actives have a fitted effect of over 50% in size.
Details: MCF 10A DNA re-replication, Hoechst nuclear intensity, 48 h; series mostly up to 46.1 µM
Potency means the concentration at half of the fitted maximal effect; tags describe the fitted curve by direction and shape.

Row | SMILES | Potency
1 | CN(c1ccc(C(=O)N2CCOCC2)cc1)S(C)(=O)=O | inconclusive [activator, full curve, poor fit]
2 | Cc1ccccc1-c1nc(CN2CCC(C(=O)NCc3ccco3)CC2)c(C)o1 | inactive
3 | O=C1CC(c2cccc(F)c2)SC(N(c2ccccc2)c2ccccc2)=N1 (stereo unspecified) | inconclusive [activator, single point]
4 | CN(C)CC(CCCCC(CN(C)C)C(=O)c1ccccc1)C(=O)c1ccccc1 (stereo unspecified) | inconclusive [activator, single point]
5 | COc1ccc(OC)c(N(CC(=O)Nc2cccnc2)S(C)(=O)=O)c1 | inconclusive [activator, full curve, poor fit]
6 | Cc1ccc(C(=O)Nc2ccc(N3CCN(S(C)(=O)=O)CC3)cc2)cc1C | inconclusive [activator, single point]
7 | COc1ccc(Nc2cc(C)nc3ccc(OC)cc23)cc1 | inactive
8 | O=C(/C=C/c1ccc(Br)cc1)N1CCN(Cc2ccccc2)CC1 | inconclusive [activator, partial curve, poor fit]
9 | Cc1cc(C)n(-c2nc(-c3cccc(Cl)c3)cs2)n1 | inconclusive [activator, full curve, poor fit]
10 | COc1cc(OC)cc(-c2cc3ccc(OC)cc3cn2)c1 | inactive
11 | CN(Cc1nccs1)C(=O)c1ccc(OC2CCN(CCc3ccccc3)CC2)cc1 | inconclusive [activator, single point]
12 | Oc1ccccc1/C=N/Nc1cccc2cccnc12 | inconclusive [activator, single point]
13 | CCN(C(=O)COC(=O)/C(=C/c1ccccc1)n1nnnc1C)C1CCCCC1 | inconclusive [activator, single point]
14 | CCOC(=O)CSc1nnc(CSc2nc(C)cc(C)n2)n1Cc1ccco1 | inconclusive [activator, single point]
15 | COc1ccc(CNC(=O)CCNS(=O)(=O)c2ccc(NC(C)=O)cc2)cc1OC | inconclusive [activator, partial curve, poor fit]
16 | O=C(Nc1ccc2nsnc2c1)N1CCCCC1 | inconclusive [activator, single point]
17 | O=C(Cc1ccc(-c2ccccc2)cc1)Nc1ccccn1 | inconclusive [activator, partial curve, poor fit]
18 | COc1ccc(-c2cc(-c3cccs3)c(C#N)c(SCC(=O)NCc3ccco3)n2)cc1 | active: 1.46 µM
19 | Cc1nc(N2CCOCC2)[nH]c(=O)c1[N+](=O)[O-] | inconclusive [activator, single point]
20 | Cc1ccc(S(=O)(=O)NNC(=O)c2ccccc2O)cc1 | inconclusive [activator, single point]
21 | CC1CC(C)(C)CC2(C1)NC(=O)N(CC(=O)NCCc1c[nH]c3ccccc13)C2=O (stereo unspecified) | inconclusive [activator, single point]

Row | SMILES | Potency
22 | Cc1ccc(-c2nc(NCc3cccnc3)c3ccccc3n2)cc1 | inconclusive [activator, single point]
23 | COc1cccc(-c2ccc3ncnc(NCc4ccc5c(c4)OCO5)c3c2)c1 | active: 16.4 µM
24 | CCCc1ccc2oc(C(=O)N3CCCC3)c(C)c2c1 | inconclusive [activator, partial curve, poor fit]
25 | O=C(Nc1ccc(F)c(Cl)c1)N1CCCCCC1 | inactive
26 | O=C(Nc1ccc(N2CCCCC2)cc1)c1ccc([N+](=O)[O-])o1 | inconclusive [activator, single point]
27 | Cc1cccc(Nc2c([N+](=O)[O-])c(=O)oc3ccccc23)c1 | inconclusive [activator, single point]
28 | CCOC(=O)c1c2n(c3c(NCc4ccccc4)ncnc13)CCCC2 | inactive
29 | Cc1[nH]n(-c2ccc([N+](=O)[O-])cc2)c(=O)c1C=NCCN1CCN(C(=O)c2ccc(Br)cc2)CC1 | inactive
30 | CCO[C@@H]1OC(C(=O)N2CCN(C)CC2)=C[C@H](c2csc3ccccc23)[C@H]1CCCO | inconclusive [activator, single point]
31 | COc1cc(NC(=O)CN(c2ccc(C)cc2)S(=O)(=O)c2c(C)noc2C)cc(OC)c1 | inconclusive [activator, single point]
32 | O=C(O)COc1ccccc1/C=N/NC(=O)c1cc(-c2ccccc2)nc2ccccc12 | inactive
33 | CC(C)(C)c1nn(-c2ccccc2)c2[nH]c(=O)c(CNc3ccc4c(c3)OCCO4)cc12 | inconclusive [activator, single point]
34 | CCOC(=O)C1CCN(C(c2cccnc2)c2c(NC(=O)c3ccco3)sc(C)c2C)CC1 (stereo unspecified) | inconclusive [activator, partial curve, poor fit]
35 | Cc1nc2ccc(NC(=O)CSc3nnc(C)s3)cc2[nH]1 | inconclusive [activator, single point]
36 | CCc1ccc2c(c1)C1(C(=O)N2)N2CCCC2C(C(=O)c2ccc3ccccc3c2)C12C(=O)Nc1ccccc12 (stereo unspecified) | inconclusive [activator, single point]
37 | COc1ccc(N(C)C(=O)c2cc3c(s2)-c2ccccc2OC3)c(OC)c1 | inconclusive [activator, single point]
38 | Cc1ccc(Nc2nnc(SCC(=O)c3cc4ccccc4o3)s2)cc1C | inconclusive [activator, partial curve, poor fit]
39 | Cc1cc(=O)n(C)c(=O)n1CCCCCCOc1cccc([N+](=O)[O-])c1 | inactive
40 | Cc1ncc(C[n+]2csc(CCOC(=O)C34CC5CC(CC(C5)C3)C4)c2C)c(N)n1 | inconclusive [activator, partial curve, poor fit]
41 | Cc1nc2sc3c(c2c2nnc(SCC(=O)NCc4ccco4)n12)CCCC3 | inconclusive [activator, partial curve, poor fit]
